# According to PubChem BioAssay (NCI):
# The source holds several records for some structures; these can differ, active in one and inactive in another.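 Single-dose data. Exposure time 48 hours. Values below 10 considered active.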 A number of entries come with more than one value. This is not the full list of results. An entry can have further records. For part of these data: This drug was run again and again over the years, at its own concentration, as given; each value is one run. Additions like (4×) count equal records among those shown. Some values that stand alone complete this part of the results. Activity calls are given as the source filed them.
# What was measured:
# ACHN renal = test: NCI-60 one-dose screen, 48 h (100 = growth as untreated, 0 = no growth, -100 = all killed)
# CAKI-1 renal = test: as above; conditions: 0.25 µM
smiles,measurement,setting,value
COc1cccc2c1C(=O)c1c(O)c3c(c(O)c1C2=O)C[C@@](O)(C(=O)CO)C[C@@H]3OC1CC(N)C(O)C(C)O1 (stereo not given in full),growth,"ACHN renal; 0.25 µM, runs of 2021","inactive: 33.1, 44.8, 34.4, 35.2, 49.6, 41.7, 49, 35.3, 39.2, 36.2, 39.5, 45, 20.7, 24.4 (2×), 22.8, 22.2 (2×), 22.7, 23.6, 19.9 (2×), 24.5 (2×), 25.3, 32.2, 36, 37, 35, 33.4, 37.9, 43.1, 24.3, 25, 26.9, 31 (2×), 33.3, 40.6, 28.3, 27.1, 31.3, 30.5, 32, 20.1, 26.2, 18.5, 18.4, 25.1, 23.4, 26.1%"
same,growth,"ACHN renal; 0.25 µM, runs of 2022","active: 0.932%, 4.14%, 2.05% and inactive: 26, 31.7, 27.5, 17.9, 32, 37.9, 38.1, 50.5, 31.5, 25.2, 19.2, 46.2, 54.5, 30, 56.5, 43.4, 76.8, 25.9, 26.2, 33.1, 43.8%"
same,growth,"ACHN renal; 25 µM, runs of 1991","active: 1.89, -3.03, 0.416, -6.82, -73.8, -19.5, -9.57, -21.8, -22.8, -6.11, 5.15, 0.695, 6.49, -17.9, -9.89, -3.66%"
same,growth,"ACHN renal; 25 µM, runs of 1992","active: -0.873, -12.3, -26.5 (2×), -13.6, -34.2, -35.3 (2×), 1.11, -27.4, -1.49, -45.1, -40.9, -17.9 (3×), 4.46, -22.9, -29.3, -27.7, -41.1, -9.95, 2.07, -4.9, -40.4, 0.77, -31.3, 5.91, 1.64, -37.7, -15.1, -11 (2×), -12.5 (2×), -9.48, -20.9, -6.98, 2.86, 4.96, -19, -3.71, 4.72, -11.2, -2.99, 2.26, -3.56, -15.4, 3.3, -5.31, -26.6, -9.62, -31.9, -13.5, -32.3, 1.86, -16.2, 0.329, -9.78, -19.2, -14, 5.53, 2.45, -11.5, -33.9, -8.73, 6.02, -37.3, -44.1, -27, -21.9, -17.3 (2×), -16.5, -15.9, -19.9 (2×), -24.6, -10.3 (2×), -21.6 (2×), -44.4, -51.8, -15.8, -28.7, 0.696, 6.93, -23.6, -21.3, -22.2 (2×), -15.6, -26, -0.662, -61.7, 0.414, -20.5, -22.6, -6.71, -14.1, -11.3, -33.5, -37, -28.5, -10, -42.3, -42.1, -27.6, -23.7, -25.9, -22, -31, -23.9% and inactive: 98.8%, 11.9%"
same,growth,"ACHN renal; 25 µM, runs of 1993","active: -13.8 (2×), -10.2, -25.1, -38.1, -14.6, 2.61, 6.43, -22.9, -35, -43.9, 3.47, -2.13, -19.4, -21.8, -30, -30.8, -14.4, -23.4, -6.21, -21.7, -49, -21, -16.7, -16.3, -8.48, -29.9, -5.4, 0.672, 9.39, -1.86, -32.3, -9.86, -13.5, -26.7, -19.8, -5.98, -37.1, -27.5, -38.9, -51.2, -9.41, -27.8, 1.97, -41.4, -5.16% and inactive: 11.8%"
same,growth,"ACHN renal; 25 µM, runs of 1994","inactive: 83.8% and active: -26.2, -41, -6.88, -5.37, -3.43, -21.6, 5, 1.45, 1.74, -24.7, -34.9, -8.86, -34.7, -32.7, -20, -2.29, 0.119, -34.5, -16.6, 7.32, -20.3, -20.2, 4.74, -38.6, 1.99, -26.1, -41.3, 1.4, -10.5, -8.03, -7.92, -10.1%"
same,growth,"ACHN renal; 25 µM, runs of 1995","active: -4.42, -0.783, -22.3 (2×), 2.48, -30, -39.6, -18, -18.6, -13.5, -29.8, -20.1, -30.9, -8.72, -3.97, -12.2, -19.4, -21.1, -18.1, -12.5, -26.4, -34.8, -19.6, -41.2, -15.3, -8.95, -25.6 (2×), 7.03, 6.05, -23.9, -40.5, -24.4, -44.5, 1.67, -16.7, -21.7, -23.8, -20.5, -30.1%"
same,growth,"ACHN renal; 25 µM, runs of 1996","active: -30, -22.2, -27.1, -25.2, -45.1, 1.07, -57.1, -7.8, -38.5, -58.3, -47.3, -24.8, -16.2 (2×), -1.81, -50.4, -28.1, 0.764, 6.94, -19.2 (2×), -69.6, -17.1, 9.73, 5.08, 5.61, -38.1, -26.3, -8.05, -14.3, -27.6, -23.7, -3.29, -21.1, -22.4, -9.08, -15.8, 5.52, 8.1, 1.02, -22.5, -43.1, 4.88, -2.5, 5.37, 3.38, -13.2, -38.9, -24, -3, 5.96, 5.19, 6.22, -39.3, -21.7, 2.1% and inactive: 91.8%, 22.8%"
same,growth,"ACHN renal; 25 µM, runs of 1997","active: -13.6, -27.8, 2.19, -22.2, -24.6, 9.25, -38.8, -36.1, 4.92, -20.8, -18.7 (2×), 3.22, 1.63, -5.58, 0.333, -44.8, -41, -23.6, -19.5, -13.5, -20.3, -30.5, 6.05, 2.69, 6.66, 8.39, -10, -34, -10.7, 4.91, 3.29, -22.7, -7.11, 9.68, -4.29, -23.4, -2.71, -45.9, 8.16, -0.18% and inactive: 10.7%"
same,growth,"ACHN renal; 25 µM, runs of 1998","active: -17.5 (2×), -26.8, -28, 1.79, 5.74, -25.2, -24, -44.3, -46.2, -25, -26.4, -10.5, -57, -72.2, -52.7, -26.5, -35.3, -66.5, -21.2, -6.96% and inactive: 11.2%, 12.1%"
same,growth,"ACHN renal; 25 µM, runs of 1999","active: -35.5, -27.7, -37.1, -9.54, -15, -26.9, -100 (5×), -45.7, -61.7, 2.02, -80.5, -1.41, -74.7, 3.61%"
same,growth,"ACHN renal; 25 µM, runs of 2000","active: -100% (2×), -85%, -81.9%"
same,growth,CAKI-1 renal; runs of 2006,inactive: 31.6%
same,growth,CAKI-1 renal; runs of 2007,"inactive: 70.1, 13.1, 62, 56.9, 72.5, 62.4, 75.2, 67.2, 29.7, 26.3, 18.7, 20, 23.6, 20.3, 10.8, 29.9, 39.2, 40.1, 39.7, 47.7, 37, 52.6, 42, 61.4, 63.8, 72.8, 55.6, 56.1, 12.1, 58.2, 58.6, 57.6, 58.4, 50, 64.8, 46, 36.9, 61.9, 54.1, 62.7, 64% and active: -4.16%"
same,growth,CAKI-1 renal; runs of 2008,"inactive: 63.3, 38.7, 54.4, 27.5, 31.7, 31.5, 15, 17.5, 17.9, 22.8, 13, 18.9 (2×), 48.4, 74.7, 58.9, 23.6, 34.5, 16.1, 49.3, 65.9, 46.6, 40.4, 66.9, 59.6, 62.5, 64.2, 63.2, 64.5 (2×), 64.3, 41, 59.3, 56.6, 54.8, 77.3, 53, 61.3, 63.5, 77.7, 20.6, 22.6, 14.3, 33.5, 39.6% and active: -36.8, 2.66, -0.536, -8.01, 8.08%"
